{"source": "PubChem BioAssay AID1030", "about": "(National Center for Advancing Translational Sciences (NCATS), 2008)", "note": "“And” between values parts separate entries of the source, which are not always exact repeats. Equal values may be shown once. Out of some 220,000 compounds screened, about 16,000 (7.3%) were called active. Inconclusive results, whose numbers are uncertain, are shown with a selection of clear calls. Calls come from the whole dose curve; as a rule, active = well fitted inhibition curve with a large enough effect (not every such curve was filed as active); inconclusive = small, poorly fitted or top-dose-only effect, or another doubt; inactive = no such curve, though single readings can be large or run the other way. Where the call is inconclusive, the potency comes from a doubtful curve fit. Potency is the fitted concentration of half-maximal effect; tags give direction and shape of the fitted curve.", "data": [{"molecular_target": "Aldehyde dehydrogenase 1A1 (Homo sapiens) (UniProt P00352)", "sequence (P00352 whole entry, looked up)": "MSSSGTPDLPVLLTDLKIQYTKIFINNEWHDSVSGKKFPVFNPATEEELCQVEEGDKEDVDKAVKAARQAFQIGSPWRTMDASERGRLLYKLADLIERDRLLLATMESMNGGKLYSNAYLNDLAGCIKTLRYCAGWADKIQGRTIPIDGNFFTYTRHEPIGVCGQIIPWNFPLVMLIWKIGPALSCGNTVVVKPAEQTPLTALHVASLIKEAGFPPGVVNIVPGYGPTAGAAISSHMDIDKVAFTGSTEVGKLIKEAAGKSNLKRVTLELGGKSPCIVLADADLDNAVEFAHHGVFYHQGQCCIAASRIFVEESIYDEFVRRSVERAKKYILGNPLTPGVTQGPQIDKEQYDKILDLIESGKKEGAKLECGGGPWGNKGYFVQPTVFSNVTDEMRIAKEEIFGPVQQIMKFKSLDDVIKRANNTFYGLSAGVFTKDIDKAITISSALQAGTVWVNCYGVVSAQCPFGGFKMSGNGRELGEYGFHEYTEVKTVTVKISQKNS", "assay": "qHTS Assay for Inhibitors of Aldehyde Dehydrogenase 1 (ALDH1A1)", "settings": "Purified ALDH1A1, NADH fluorescence, propionaldehyde substrate; series mostly up to 75.3 µM", "values": [{"compound": "CC(=O)n1c(Cl)c(NC(=O)CCl)c2ccccc21", "Potency": "active: 22.4 µM"}, {"compound": "CC1=CC2=NC(=O)/C(=C\\c3cc(C)n(-c4cccc(Cl)c4)c3C)C(=N)N2O1", "Potency": "inactive"}, {"compound": "CCN(CC)S(=O)(=O)c1ccc(C(=O)OCC(=O)NCCN2C(=O)CSC2=O)cc1", "Potency": "inconclusive: 39.8 µM [inhibitor, single point]"}, {"compound": "CCCCc1[nH]c(=O)c(C#N)c2c1CSC(C)(C)C2", "Potency": "inconclusive: 35.5 µM [inhibitor, single point]"}, {"compound": "O=C(CC(=O)c1ccncc1)c1ccccc1", "Potency": "active: 3.55 µM"}, {"compound": "O=C(c1ccc(S(=O)(=O)Cc2cc(F)ccc2F)c([N+](=O)[O-])c1)N1CCCC1", "Potency": "active: 8.91 µM"}, {"compound": "O=C(CNc1ccc2c(c1)OCO2)N/N=C\\c1ccccc1Cl", "Potency": "inconclusive: 28.2 µM [inhibitor, partial curve]"}, {"compound": "Cc1cccc(-c2nnc(NC(=O)c3cccs3)s2)c1", "Potency": "inconclusive: 5.01 µM [inhibitor, single point]"}, {"compound": "C=CCc1ccc(OCCOCCOc2ccc(C)cc2[N+](=O)[O-])c(OC)c1", "Potency": "active: 25.1 µM"}, {"compound": "CCCn1c(C)nc2c(c1=O)c1nc3ccccc3nc1n2CCC1=CCCCC1", "Potency": "inconclusive: 22.4 µM [inhibitor, partial curve]"}, {"compound": "CC(C)c1ccc(OCC(=O)Nc2cccc3c2CCCC3)cc1", "Potency": "inconclusive: 15.8 µM [inhibitor, partial curve]"}, {"compound": "O=C(N/N=C/c1ccc(F)cc1)c1sccc1OCc1ccc(F)cc1", "Potency": "inactive"}, {"compound": "Cc1cc(C)c2c(-n3cccc3)c(C(=O)NNS(=O)(=O)c3ccc(Cl)cc3)sc2n1", "Potency": "active: 1 µM"}, {"compound": "CCOC(=O)C1CCCN(C(=O)c2ccco2)C1", "note": "(centres undefined)", "Potency": "active: 8.91 µM"}, {"compound": "CCN(CC(=O)Nc1ccc(OC)cc1)CC(=O)Nc1ccc(Cl)cc1F", "Potency": "inconclusive: 39.8 µM [inhibitor, single point]"}, {"compound": "COc1ccc(-c2nc3cnc(OC)nc3n(-c3ccc(OC)cc3)c2=O)cc1", "Potency": "inconclusive: 39.8 µM [inhibitor, single point]"}, {"compound": "N#Cc1ccc(Oc2ccc(-c3cnc4ccccc4n3)cc2)cc1C#N", "Potency": "inconclusive: 7.94 µM [inhibitor, full curve]"}, {"compound": "COc1ccc(NC(=O)c2sccc2SCC#N)cc1", "Potency": "inconclusive: 35.5 µM [inhibitor, single point]"}, {"compound": "CCN(CC)CCN(C)C(=O)CCc1nnc(-c2ccc(C)s2)o1", "Potency": "inactive"}, {"compound": "Cc1cc(-c2ccccc2)nc(N2CCC(C(=O)NC(C)C)CC2)n1", "Potency": "inactive"}, {"compound": "O=C1CCc2cc(S(=O)(=O)NC(Cc3ccccc3)C(=O)NCC3CCCO3)ccc2N1", "note": "(centres undefined)", "Potency": "inconclusive: 25.1 µM [inhibitor, partial curve]"}, {"compound": "COc1ccc(NC(=O)c2cccs2)cc1O", "Potency": "inconclusive: 39.8 µM [inhibitor, single point]"}, {"compound": "CCOC(=O)C1=C(C)NC(C)=C(C(=O)OCC)C1C(=O)OCC(=O)N(C)C1CCS(=O)(=O)C1", "note": "(centres undefined)", "Potency": "inactive"}, {"compound": "O=C(c1cc2nc(-c3ccco3)cc(C(F)(F)F)n2n1)N1CCN(c2ccc(F)cc2)CC1", "Potency": "inconclusive: 39.8 µM [inhibitor, single point]"}, {"compound": "COc1cc(C)c(NC(=S)Nc2ccc(C)c(Cl)c2)cc1OC", "Potency": "inconclusive: 28.2 µM [inhibitor, single point]"}, {"compound": "c1ccc(-c2nn3c(-c4ccco4)nnc3s2)nc1", "Potency": "active: 23.8 µM"}, {"compound": "CCOC(=O)N1CCN(S(=O)(=O)c2ccc(OC)c3ccccc23)CC1", "Potency": "inconclusive: 39.8 µM [inhibitor, single point]"}, {"compound": "CC(=O)N1[C@H](C)C=C[C@]1(Cc1ccccc1)C(=O)NCCc1c[nH]c2ccccc12", "Potency": "inconclusive: 39.8 µM [inhibitor, single point]"}, {"compound": "COC(=O)C(C)N(C#N)c1nc(C)nc(C)n1", "note": "(centres undefined)", "Potency": "inconclusive: 31.6 µM [inhibitor, partial curve, poor fit]"}, {"compound": "CC(=O)N(c1ccc(N(C(C)=O)S(=O)(=O)c2cccs2)cc1)S(=O)(=O)c1cccs1", "Potency": "inconclusive: 44.7 µM [inhibitor, single point]"}, {"compound": "C/C(=N\\OCC(=O)Nc1ccc(F)c(F)c1F)c1cc2ccccc2o1", "Potency": "inconclusive: 39.8 µM [inhibitor, single point]"}, {"compound": "Cc1cc(/C=C2/NC(=O)N(c3ccccc3)C2=O)c(C)n1-c1cccnc1", "Potency": "active: 4.47 µM"}, {"compound": "CCc1cc2c(=O)n(Cc3ccco3)c(SCC(=O)NC3CCS(=O)(=O)C3)nc2s1", "note": "(centres undefined)", "Potency": "active: 10 µM"}, {"compound": "COC(=O)c1ccc(C2Nc3ccc(/C(C)=N/NC(=O)C(OC)c4ccccc4)cc3C3C=CCC32)cc1", "note": "(centres undefined)", "Potency": "inconclusive: 39.8 µM [inhibitor, single point]"}, {"compound": "CC(CN1c2ccccc2Sc2ccccc21)N(C)C", "note": "(centres undefined)", "Potency": "inactive and inconclusive: 39.8 µM [inhibitor, single point]"}, {"compound": "Cc1cccc(OCCNC(=O)CSc2ccc(C(F)(F)F)cc2[N+](=O)[O-])c1", "Potency": "inconclusive: 39.8 µM [inhibitor, single point]"}, {"compound": "COc1cc(Cl)c(C)cc1NC(=O)c1ccc(S(C)(=O)=O)cc1", "Potency": "inactive"}, {"compound": "Cc1ccc(NC(=O)COC(=O)c2ccc([N+](=O)[O-])o2)cc1S(=O)(=O)N1CCCCCC1", "Potency": "inconclusive: 39.8 µM [inhibitor, single point]"}, {"compound": "C/C(=N\\NC(=O)CNc1ccccc1Cl)C(C)(C)C", "Potency": "inactive"}, {"compound": "Fc1ccc(-n2c(-c3ccc4c(c3)OCO4)n[nH]c2=S)cc1Cl", "Potency": "inconclusive: 39.8 µM [inhibitor, single point]"}, {"compound": "Cc1ccc(C(=S)N2CCN(Cc3ccccc3)CC2)s1", "Potency": "active: 14.1 µM"}, {"compound": "Fc1ccc(CSc2nc3ccccc3[nH]2)c2ccccc12", "Potency": "inactive"}, {"compound": "CC(=O)Nc1cc2c(cc1C(C)=O)OCCO2", "Potency": "inconclusive: 39.8 µM [inhibitor, single point]"}, {"compound": "CCCCn1c(SCC(=O)Nc2nnc(C)s2)nnc1-c1ccncc1", "Potency": "inactive"}, {"compound": "Clc1ccc(CO/N=C/c2c(-c3ccccc3)nc3n2CCS3)c(Cl)c1", "Potency": "inconclusive: 39.8 µM [inhibitor, single point]"}, {"compound": "COc1ccc(/C=N/NC(=O)c2nc(Cl)c(Cl)c(N)c2Cl)cc1COc1ccc(F)cc1F", "Potency": "inconclusive: 35.5 µM [inhibitor, single point]"}, {"compound": "CC(C)Cn1c(N)c(C(=O)COC(=O)[C@@H]2CCCN2C(=O)c2cccs2)c(=O)n(C)c1=O", "Potency": "inactive"}, {"compound": "O=C(O)c1cccc(NC(=S)N/N=C/c2cccnc2)c1", "Potency": "active: 25.1 µM"}, {"compound": "Cc1ccccc1NC(=S)Nc1ccc2[nH]c(=O)[nH]c2c1", "Potency": "inconclusive: 39.8 µM [inhibitor, single point]"}, {"compound": "COc1cccc(C(=O)N2CCC(O)(c3cccnc3)CC2)c1", "Potency": "inactive"}, {"compound": "O=c1c(-c2ccccc2)nc2cnc(N3CCOCC3)nc2n1Cc1ccc(F)cc1", "Potency": "inconclusive: 12.6 µM [inhibitor, partial curve]"}, {"compound": "CC1CC(C)(C)NC(=S)N1CCC(=O)N1CCN(Cc2ccccc2)CC1", "note": "(centres undefined)", "Potency": "inactive"}, {"compound": "Cn1c(=O)c2[nH]c(CN(Cc3ccccc3)Cc3ccccc3)nc2n(C)c1=O", "Potency": "inconclusive: 44.7 µM [inhibitor, single point]"}, {"compound": "Cc1ccccc1NC(=O)c1ccc2c(c1)C(=O)N(CCC(C)C)C2=O", "Potency": "inconclusive: 5.01 µM [inhibitor, partial curve]"}, {"compound": "CCNc1ncc2nc(-c3ccc(OC)cc3)c(=O)n(Cc3cccc(OC)c3)c2n1", "Potency": "inconclusive: 20 µM [inhibitor, single point]"}, {"compound": "Oc1ccc(CNCC2COc3ccccc3O2)cc1", "note": "(centres undefined)", "Potency": "inconclusive: 11.2 µM [inhibitor, partial curve]"}, {"compound": "CC1(C)[C@@H](OC(=O)CCC(=O)O)CC[C@@]2(C)[C@H]1CC[C@@]1(C)[C@H]2C(=O)C=C2[C@H]3C[C@](C)(C(=O)O)CC[C@]3(C)CC[C@@]21C", "Potency": "inactive"}, {"compound": "CCNC(=O)CC1C(=O)N(c2ccc(OC)cc2)C(=S)N1CCc1ccncc1", "note": "(centres undefined)", "Potency": "inconclusive: 17.8 µM [inhibitor, single point]"}, {"compound": "Cc1ccc([N+](=O)[O-])c2c1C(N1CCCC1)C(C)(C)O2", "note": "(centres undefined)", "Potency": "inconclusive: 39.8 µM [inhibitor, single point]"}, {"compound": "O=C(COC(=O)/C=C/c1ccc(S(=O)(=O)N2CCc3ccccc32)cc1)NC1CCS(=O)(=O)C1", "note": "(centres undefined)", "Potency": "inconclusive: 17.8 µM [inhibitor, partial curve]"}, {"compound": "O=C(CSc1cccc2cccnc12)N1CCCC1", "Potency": "inconclusive: 22.4 µM [inhibitor, partial curve]"}, {"compound": "Cc1ccc(OCCn2c(=S)[nH]c3c(N)ncnc32)cc1", "Potency": "active: 7.94 µM"}, {"compound": "Nc1ccccc1Nc1cc(-c2ccccc2)[nH]n1", "Potency": "inconclusive: 10 µM [inhibitor, partial curve, poor fit]"}, {"compound": "COc1ccccc1CNC(=O)CSCc1cnn(-c2ccccc2)c1-n1cccc1", "Potency": "inconclusive: 39.8 µM [inhibitor, single point]"}, {"compound": "Oc1ccc(/C=N/n2cc(-c3ccccc3)[nH]c2=S)cc1", "Potency": "inconclusive: 35.5 µM [inhibitor, single point]"}, {"compound": "CC(=O)Nc1ccc2c(COC(=O)CC3Sc4ccccc4NC3=O)cc(=O)oc2c1", "note": "(centres undefined)", "Potency": "inconclusive: 20 µM [inhibitor, partial curve]"}, {"compound": "O=C(CSc1nnc(CNc2ccccc2)o1)c1ccc2c(c1)OCCO2", "Potency": "active: 14.1 µM"}, {"compound": "S=C(NN=C1C2CC3CC(C2)CC1C3)Nc1ccccc1", "Potency": "inconclusive: 39.8 µM [inhibitor, single point]"}, {"compound": "COc1cc(OC)cc(C(=O)Nc2ccc(-n3cnnn3)c(C)c2)c1", "Potency": "inconclusive: 39.8 µM [inhibitor, single point]"}]}]}
